Measurements from PubChem BioAssay AID1460 (National Center for Advancing Translational Sciences (NCATS), 2008).
Out of some 270,000 compounds screened, about 5,800 (2.1%) were called active. Inconclusive results, whose numbers are uncertain, are shown with a selection of clear calls. Calls follow the shape of the dose curve; as a rule, active = well fitted inhibition curve with a large enough effect; inconclusive = small, poorly fitted or top-dose-only effect; inactive = flat fitted curve, though single readings scatter. A potency beside an inconclusive call is a rough fit, not a confirmed value.

What follows are compounds tested against Microtubule-associated protein tau (Homo sapiens) (UniProt P10636) (assay: qHTS for Inhibitors of Tau Fibril Formation, Thioflavin T Binding). Details: recombinant tau K18 P301L, heparin-induced fibrillization, ThT fluorescence; series mostly up to 57.4 µM; activity, negative = inhibition: at the top concentration.
Chain of UniProt P10636 (P10636 whole entry, looked up): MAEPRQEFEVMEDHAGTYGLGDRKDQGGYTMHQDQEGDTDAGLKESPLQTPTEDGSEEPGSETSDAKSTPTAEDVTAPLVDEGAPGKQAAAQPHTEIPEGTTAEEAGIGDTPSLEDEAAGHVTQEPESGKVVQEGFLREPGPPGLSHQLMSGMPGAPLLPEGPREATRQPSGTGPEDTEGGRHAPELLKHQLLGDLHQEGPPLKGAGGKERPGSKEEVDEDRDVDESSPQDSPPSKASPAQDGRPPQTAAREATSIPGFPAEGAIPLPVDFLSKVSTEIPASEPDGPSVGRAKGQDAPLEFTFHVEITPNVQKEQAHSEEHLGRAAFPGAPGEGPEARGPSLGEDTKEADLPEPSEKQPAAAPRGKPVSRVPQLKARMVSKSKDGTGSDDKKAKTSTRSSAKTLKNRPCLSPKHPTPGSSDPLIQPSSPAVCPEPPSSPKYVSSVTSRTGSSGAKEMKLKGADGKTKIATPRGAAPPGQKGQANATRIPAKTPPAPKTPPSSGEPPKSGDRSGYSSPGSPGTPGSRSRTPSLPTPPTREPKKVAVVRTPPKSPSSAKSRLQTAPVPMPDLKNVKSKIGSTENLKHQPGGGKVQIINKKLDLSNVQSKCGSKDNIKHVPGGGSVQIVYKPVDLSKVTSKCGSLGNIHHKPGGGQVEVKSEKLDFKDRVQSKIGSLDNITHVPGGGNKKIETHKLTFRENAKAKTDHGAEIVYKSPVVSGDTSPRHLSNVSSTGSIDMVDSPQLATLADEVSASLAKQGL
Summary of the method: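 Fibril formation assay: tau K18 P301L at 15 uM with trace Alexa 594 label, heparin inducer 20 uM, pH 7 sodium acetate buffer, 37 C for 6 hr; endpoint ThT signal.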
% is scaled to controls: 0 for no effect and ±100 for the full control effect; potency is read from the fitted curve at half-maximal effect; tags tell the direction and shape of the fitted curve.
Also: nearly all actives have a fitted effect of over 55% in size.

| Structure (SMILES) | Potency | activity, negative = inhibition |
| --- | --- | --- |
| N#CC(C#N)=C1c2cc(S(N)(=O)=O)ccc2-c2ccc(S(N)(=O)=O)cc21 | inconclusive: 35.5 µM [inhibitor, single point] | – |
| CCc1ccc(CCC(=O)Nc2sc(C)c(C)c2C(=O)OC)o1 | inconclusive: 39.8 µM [inhibitor, single point] | – |
| CC(C)CN(C)Cc1c(C(=O)N2CCc3ccccc3C2)nc2ccc(Cl)cn12 | – | inactive: -13% |
| CC1(C)CC(NC(=O)c2ccccc2C(=O)NC2CC(C)(C)NC(C)(C)C2)CC(C)(C)N1 | – | inactive: -8.77% |
| COc1ccc(C(=O)N2c3cc4c(cc3C(C)=CC2(C)C)OCO4)cc1 | inconclusive: 39.8 µM [inhibitor, single point] | – |
| Cc1cccc(NC(=O)c2sc3nc4c(c(-c5ccco5)c3c2N)CCC4)c1 | active: 7.94 µM | – |
| CCOC(=O)C1=C(CS(=O)(=O)c2ccc(OC)c(Cl)c2)NC(=O)NC1c1cccc(OC)c1 (centres undefined) | – | inactive: -9.42% |
| CCOC(=O)C1(CC2CCCCO2)CCN(Cc2cc(F)ccc2-n2cccn2)CC1 (centres undefined) | inconclusive: 15.8 µM [inhibitor, partial curve, poor fit] | – |
| COC(=O)CCCC1=CC2=C(c3ccccc3)C(=O)C(C)(OC(=O)C3CCCC3)C(=O)C2=CN1C1CCCCC1 (centres undefined) | inconclusive: 20 µM [inhibitor, partial curve] | inactive: -7.78% [at 11.5 µM] |
| CCN1C(=O)/C(=C\c2nc3ccccc3c(=O)n2CC)c2ccccc21 | inconclusive: 28.2 µM [inhibitor, single point] | – |
| CC1(C)CC(=O)C2=C(C1)NC1=C(C(=O)c3ccccc31)C2c1ccc(Cl)cc1 (centres undefined) | inconclusive: 10 µM [inhibitor, partial curve] | – |
| Cc1ccc(C(NC(=O)NC(C)c2ccccc2)C(Cl)(Cl)Cl)cc1F (centres undefined) | – | inactive: -14.2% |
| CN(CC(=O)Nc1cccc2ccccc12)C(=O)/C=C/c1cccs1 | – | inactive: -12.9% |
| CCOC(=O)COc1ccc(F)cc1C(=O)c1ccn2nc(-c3ccc(Cl)cc3)cc2n1 | – | inactive: -3.88% |
| CCOC(=O)c1noc2ncnc(Nc3cccc(OC)c3)c12 | – | inactive: -3.43% |
| CCN1C/C(=C/c2sccc2C)c2nc3ccccc3c(C(=O)O)c2C1 | inconclusive: 15.8 µM [inhibitor, single point] | – |
| COc1cccc([C@@H]2Oc3ccc(Br)cc3C(=O)[C@H]2OC(=O)NCCOc2ccccc2)c1 | inconclusive: 8.91 µM [inhibitor, single point] | – |
| Cc1ccc(S(=O)Cc2nc(-c3ccc(C(=O)NCc4cccc(C)c4)cc3)oc2C)cc1 (centres undefined) | – | inactive: -2.18% |
| CC(=O)Nc1c(C)nn(-c2ccccc2)c1N1CCC(C(=O)NCc2ccccc2Cl)CC1 | – | inactive: -5.92% |
| COc1ccc(Nc2nc(C)cc(C)c2C(N)=O)c(OC)c1 | inconclusive: 4.47 µM [inhibitor, full curve] | – |
| CN(C)S(=O)(=O)c1ccc2c(c1)/C(=C/c1cc3c([nH]1)CCCC3)C(=O)N2 | inconclusive: 2.51 µM [inhibitor, full curve] | – |
| O=[N+]([O-])c1ccc(O)c(/C=N/n2c(CO)nc3ccccc32)c1 | inconclusive: 7.94 µM [inhibitor, full curve, poor fit] | – |
| CCOc1ccc(C(=O)NCCc2csc(-c3cccc(F)c3)n2)cc1OCC | inconclusive: 22.4 µM [inhibitor, single point] | – |

| Structure (SMILES) | Potency | activity, negative = inhibition |
| --- | --- | --- |
| CN(Cc1ccccc1)c1ccc(-c2nc(-c3ccncc3)no2)cc1[N+](=O)[O-] | – | inactive: 4.16% |
| Clc1ccc(-c2csc(N/N=C/c3cccnc3)n2)c(Cl)c1 | inconclusive: 8.91 µM [inhibitor, partial curve] | – |
| Cc1nc2sc(-c3ccccc3)cc2c(=O)[nH]1 | inconclusive: 8.91 µM [inhibitor, partial curve] | – |
| COc1ccccc1C1C(C#N)=C(N)Oc2cc(C)n(Cc3ccccn3)c(=O)c21 (centres undefined) | inconclusive: 39.8 µM [inhibitor, single point] | – |
| Cc1cc(/C=C2\C(=N)N3C(SCc4ccccc4)=NSC3=NC2=O)c(C)n1Cc1ccccc1 | – | inactive: -9.56% |
| Cc1noc2ncnc(Sc3ccc(Br)cc3)c12 | inconclusive: 12.6 µM [inhibitor, single point] | – |
| CCOc1ccc(NC(=NCc2ccc3c(c2)OCO3)SC2CC(=O)N(c3ccc(OCC)cc3)C2=O)cc1 (centres undefined) | – | inactive: -3.54% |
| CC(=O)c1cccc(NC(=S)NNC(=O)c2ccco2)c1 | inconclusive: 15.8 µM [inhibitor, single point] | – |
| O=c1c2oc3ccccc3c2[nH]c(=S)n1-c1ccccc1 | – | inactive: -4.03% |
| COc1ccc2c(c1)CC/C(=C\c1ccc(OC)c(Cn3cccn3)c1)C2=O | inconclusive: 14.1 µM [inhibitor, partial curve] | – |
| CCOc1ccccc1CNS(=O)(=O)c1ccc2[nH]c(=O)sc2c1 | – | inactive: 1.66% |
| COc1ccc(C(=O)Nc2ccc3c(c2)CCCN3S(=O)(=O)c2ccc(C)cc2)c(OC)c1 | – | inactive: 0.235% |
| Cc1nc(-c2ccccc2)sc1C(=O)/C=C/c1ccccc1 | inconclusive: 14.1 µM [inhibitor, partial curve] | – |
| COc1ccc(NC(=O)c2cccnc2Nc2ccc(OC)cc2)cc1 | inconclusive: 15.8 µM [inhibitor, partial curve] | – |
| COc1ccccc1CN(Cc1cc2cc(C)ccc2[nH]c1=O)Cc1nnnn1CC1CCCO1 (centres undefined) | inconclusive: 35.5 µM [inhibitor, single point] | – |
| CCCc1cc2c(=O)c(-c3ccc4c(c3)OCCO4)c(C)oc2cc1OS(C)(=O)=O | inconclusive: 31.6 µM [inhibitor, partial curve] | – |
| CSc1ccc(C(=O)C2CCCN(C(=O)c3csc(C(C)=O)c3)C2)cc1 (centres undefined) | – | inactive: -6.19% |
| CCOc1ccc(N2C(=O)c3[nH]nc(-c4ccc(OC)cc4)c3C2c2cccs2)cc1 (centres undefined) | inconclusive: 4.47 µM [inhibitor, partial curve] | – |
| COc1ccc(-c2nnc(SCC(=O)Nc3ccc(C)c(C)c3)s2)cc1 | inconclusive: 2.51 µM [inhibitor, full curve] | – |
| N#C/C(=N\Nc1cccc(C(F)(F)F)c1)C(=O)c1ccsc1 | active: 14.1 µM | – |
| N#C/C(=C\c1cc(Cl)cc(Cl)c1O)C(=O)NC1CCCCC1 | inconclusive: 17.8 µM [inhibitor, partial curve] | – |
| COCCCNC(=O)c1ccc2c3c(onc13)-c1ccccc1C2=O | active: 6.31 µM | – |
| Cc1[nH]c2ccccc2c1N=Nc1c(C)n(C)n(-c2ccccc2)c1=O | inconclusive: 25.1 µM [inhibitor, single point] | – |

| Structure (SMILES) | Potency | activity, negative = inhibition |
| --- | --- | --- |
| O=C(Cn1c(=O)n(Cc2nc(-c3ccccc3)no2)c(=O)c2ccccc21)Nc1cccc(Cl)c1 | inconclusive: 17.8 µM [activator, partial curve] | – |
| Cc1ccc(C)c(Nc2nnc(-c3ccc(C)c(S(=O)(=O)NCC4CCCO4)c3)c3ccccc23)c1 (centres undefined) | – | inactive: -8.81% |
| Oc1ccccc1Nc1nc2ccccc2n2nnnc12 | inconclusive: 11.2 µM [inhibitor, partial curve] | – |
| Cc1cccc(/C=N/c2sc3c(c2C(=O)OC(C)(C)C)CCN(C)C3)c1O | inconclusive: 28.2 µM [inhibitor, single point] | – |
| Cc1ccc(C(=O)NCCCNc2ccc(C(F)(F)F)cc2[N+](=O)[O-])cc1 | inconclusive: 11.2 µM [inhibitor, partial curve] | – |
| COCCNC(=O)c1ccc(CN2CCc3ccccc3C2)cc1 | – | inactive: 3.49% |
| O=C(O[C@@H]1OC2COC(=O)c3cc(O)c(O)c(O)c3-c3c(cc(O)c(O)c3O)C(=O)O[C@@H]([C@H]1O)[C@@H]2O)c1cc(O)c(O)c(O)c1 | active: 7.94 µM | – |
| Cc1cc(N2CCC(C(=O)N(CC(C)C)CC(C)C)CC2)n2nc(C)c(-c3ccc(Cl)cc3)c2n1 | inconclusive: 28.2 µM [inhibitor, partial curve] | – |
| Cc1csc(NC(=O)CSc2nnc(-c3cc(C)on3)o2)n1 | – | inactive: -14.2% |
| CCOc1ccc(NC(=O)CSc2oc(-c3ccccc3)nc2S(=O)(=O)c2ccc(Cl)cc2)cc1 | – | inactive: -7.25% |
| CCOCc1cc(CN2CCN(c3ccccc3OC)CC2)c(O)c2ncccc12 | inconclusive: 15.8 µM [inhibitor, partial curve] | – |
| Cc1ccc(-c2noc(CCCC(=O)Nc3cccnc3)n2)cc1 | – | inactive: 3.79% |
| CC(=O)N1N=C(c2ccc(C)cc2)OC1c1ccc(C)cc1 (centres undefined) | inconclusive: 28.2 µM [inhibitor, single point] | – |
| Cn1nc(-c2ccc(C(=O)O)cc2)c2ccccc2c1=O | – | inactive: -7.77% |
| CO/N=C(\Cn1ncc(NC2CCCCC2)c(Br)c1=O)c1ccc(Cl)cc1 | inconclusive: 4.47 µM [inhibitor, partial curve] | – |
| O=C(/C=C/c1ccccc1)N1CCN(c2c(Cl)cccc2[N+](=O)[O-])CC1 | inconclusive: 15.8 µM [inhibitor, single point] | – |
| O=C(CO/N=C/c1ccc(OC(F)F)cc1)N1CCc2ccccc21 | inconclusive: 1.58 µM [inhibitor, partial curve] | – |
| COc1ccc(C(=O)/C=C/c2cn(CC(O)CN3CCc4ccccc43)c3ccccc23)cc1 (centres undefined) | inconclusive: 5.62 µM [inhibitor, full curve] | – |
| Cc1nc(N2CCOCC2)c2nc(-c3ccccc3)n(CCCN3CCOCC3)c2n1 | – | inactive: -12.7% |
| CCc1ccccc1NC(=O)CCCN1C(=O)CCn2nc(-c3cn(C)c4ccccc34)cc21 | inconclusive: 25.1 µM [inhibitor, single point] | – |
| COc1cc(Nc2nc(SCc3ccccc3Cl)nc3ccccc23)cc(OC)c1 | inconclusive: 14.1 µM [activator, partial curve] | – |
| CC(=O)c1nnn(-c2ccc([N+](=O)[O-])cc2C)c1C | – | inactive: -4.6% |
